*1 amine or outer side, *2 acyl side, *3 side chain or, on linkers, in order; H or OH if unused. Where a SMILES comes first, the peptide text is derived from it. [ ]: non-standard residue; d: D form. The star is where a group is joined. ξ: configuration not given here. Benzoyl(2-COOH-4,5-Cl2) = O=C(O)c1cc(Cl)c(Cl)cc1C(=O)*; Pro(4,4-ethylenedioxy) = O=C(O)[C@@H]1CC2(CN1)OCCO2; Pro(trans-4-Ph) = O=C(O)[C@@H]1C[C@@H](c2ccccc2)CN1; Pro(4,4-S(CH2)3S) = O=C(O)[C@@H]1CC2(CN1)SCCCS2; Pro(4,4-SCH2CH2S) = O=C(O)[C@@H]1CC2(CN1)SCCS2; Oic(3aξ,7aξ) = O=C(O)[C@@H]1CC2CCCCC2N1; Isobutyloxycarbonyl = CC(C)COC(=O)*; Pro(4-oxo) = O=C1CN[C@H](C(=O)O)C1; X2 = CCCC(N[*:1])C(=O)C(=O)[*:2]; X26 = c1ccc(Oc2ccc(N*)cc2)cc1; Chg = N[C@H](C(=O)O)C1CCCCC1; Phg = N[C@H](C(=O)O)c1ccccc1; Troc = O=C(OCC(Cl)(Cl)Cl)*; ξChg = NC(C(=O)O)C1CCCCC1; ξPhg = NC(C(=O)O)c1ccccc1; Boc = CC(C)(C)OC(=O)*; CO = O=C([*:1])[*:2]; OBn = c1ccc(CO*)cc1; Bn = c1ccc(C*)cc1; OtBu = CC(C)(C)O*
target: HCV NS3/NS4A protease (strain 1a) (Hepatitis C virus genotype 1a, UniProt P27958); experiment: biochemical; conditions: HCV protease continuous assay results, Table 1; read-out: Ki* Range

Row | Compound | Ki [µM]
1 | CCCC(NC(=O)[C@@H]1C[C@@H](c2ccccc2)CN1C(=O)[C@@H](NC(=O)OC(C)(C)C)C1CCCCC1)C(=O)C(=O)NCC(=O)N[C@H](C(N)=O)c1ccccc1 (stereo partly drawn) [Example 71] (Boc-[Chg][Pro(trans-4-Ph)][X2]G[Phg]-NH2) | 0.101 to 1
2 | CCCC(NC(=O)[C@@H]1C[C@@H](c2ccccc2)CN1C(=O)[C@@H](N)C1CCCCC1)C(=O)C(=O)NCC(=O)N[C@H](C(N)=O)c1ccccc1 (stereo partly drawn) [Example 72] (H-[Chg][Pro(trans-4-Ph)][X2]G[Phg]-NH2) | > 1
3 | CCCC(NC(=O)[C@@H]1C[C@@H](c2ccccc2)CN1C(=O)[C@@H](NC(=O)OCC(C)C)C1CCCCC1)C(=O)C(=O)NCC(=O)N[C@H](C(N)=O)c1ccccc1 (stereo partly drawn) [Example 73] (Isobutyloxycarbonyl-[Chg][Pro(trans-4-Ph)][X2]G[Phg]-NH2) | 0.101 to 1
4 | C=CCOC(=O)CNC(=O)C(=O)C(CCC)NC(=O)[C@@H]1CC2(CN1C(=O)C(NC(=O)OCC(C)C)C1CCCCC1)SCCS2 (stereo partly drawn) [Example 74] | > 1
5 | CCCC(NC(=O)[C@@H]1CC2(CN1C(=O)C(NC(=O)OCC(C)C)C1CCCCC1)SCCS2)C(=O)C(=O)NCC(=O)O (stereo partly drawn) [Example 75] | > 1
6 | CCCC(NC(=O)[C@@H]1CC2(CN1C(=O)C(NC(=O)OCC(C)C)C1CCCCC1)SCCS2)C(=O)C(=O)NCC(=O)NC(C(N)=O)c1ccccc1 (stereo partly drawn) [Example 76] (Isobutyloxycarbonyl-[ξChg][Pro(4,4-SCH2CH2S)][X2]G[ξPhg]-NH2) | 0.001 to 0.1
7 | CCCC(NC(=O)[C@@H]1CC2(CN1C(=O)C(NC(=O)OCC(C)C)C1CCCCC1)SCCS2)C(=O)C(=O)NCC(=O)NC(C(=O)OC(C)(C)C)c1ccccc1 (stereo partly drawn) [Example 77] (Isobutyloxycarbonyl-[ξChg][Pro(4,4-SCH2CH2S)][X2]G[ξPhg]-OtBu) | 0.101 to 1
8 | CCCC(NC(=O)[C@@H]1CC2(CN1C(=O)C(NC(=O)OCC(C)C)C1CCCCC1)SCCS2)C(=O)C(=O)NCC(=O)NC(C(=O)O)c1ccccc1 (stereo partly drawn) [Example 78] (Isobutyloxycarbonyl-[ξChg][Pro(4,4-SCH2CH2S)][X2]G[ξPhg]-OH) | 0.001 to 0.1
9 | CCCC(NC(=O)[C@@H]1C[C@@H](c2ccccc2)CN1C(=O)[C@@H](NC(=O)OC(C)(C)C)C1CCCCC1)C(=O)C(=O)NCC(=O)NC(C(=O)OCc1ccccc1)C1CCCCC1 (stereo partly drawn) [Example 79] (Boc-[Chg][Pro(trans-4-Ph)][X2]G[ξChg]-OBn) | > 1
10 | CCCC(NC(=O)[C@@H]1C[C@@H](c2ccccc2)CN1C(=O)[C@@H](NC(=O)OC(C)(C)C)C1CCCCC1)C(=O)C(=O)NCC(=O)NC(C(=O)O)C1CCCCC1 (stereo partly drawn) [Example 80] (Boc-[Chg][Pro(trans-4-Ph)][X2]G[ξChg]-OH) | 0.001 to 0.1
11 | CCCC(NC(=O)[C@@H]1C[C@@H](c2ccccc2)CN1C(=O)[C@@H](NC(=O)OCC(C)C)C1CCCCC1)C(=O)C(=O)NCC(=O)NC(C(=O)OCc1ccccc1)C1CCCCC1 (stereo partly drawn) [Example 81] (Isobutyloxycarbonyl-[Chg][Pro(trans-4-Ph)][X2]G[ξChg]-OBn) | > 1
12 | CCCC(NC(=O)[C@@H]1C[C@@H](c2ccccc2)CN1C(=O)[C@@H](NC(=O)OCC(C)C)C1CCCCC1)C(=O)C(=O)NCC(=O)NC(C(=O)O)C1CCCCC1 (stereo partly drawn) [Example 82] (Isobutyloxycarbonyl-[Chg][Pro(trans-4-Ph)][X2]G[ξChg]-OH) | 0.001 to 0.1
13 | CCCC(NC(=O)[C@@H]1C[C@@H](c2ccccc2)CN1C(=O)[C@@H](NC(=O)OCC(C)C)C1CCCCC1)C(=O)C(=O)NCC(=O)N[C@H](C(=O)O)c1ccccc1 (stereo partly drawn) [Example 83] (Isobutyloxycarbonyl-[Chg][Pro(trans-4-Ph)][X2]G[Phg]-OH) | 0.101 to 1
14 | CCCC(NC(=O)[C@@H]1C[C@@H](c2ccccc2)CN1C(=O)[C@@H](NC(=O)OCC(C)C)C1CCCCC1)C(=O)C(=O)NCC(=O)N[C@H](C(=O)OC(C)(C)C)c1ccccc1 (stereo partly drawn) [Example 84] (Isobutyloxycarbonyl-[Chg][Pro(trans-4-Ph)][X2]G[Phg]-OtBu) | > 1
15 | CCCC(NC(=O)[C@@H]1C[C@@H](c2ccccc2)CN1C(=O)[C@@H](NC(=O)OCC(Cl)(Cl)Cl)C1CCCCC1)C(=O)C(=O)NCC(=O)N[C@H](C(=O)OC(C)(C)C)c1ccccc1 (stereo partly drawn) [Example 85] (Troc-[Chg][Pro(trans-4-Ph)][X2]G[Phg]-OtBu) | > 1
16 | CCCC(NC(=O)[C@@H]1C[C@@H](c2ccccc2)CN1C(=O)[C@@H](NC(=O)OCC(Cl)(Cl)Cl)C1CCCCC1)C(=O)C(=O)NCC(=O)N[C@H](C(=O)O)c1ccccc1 (stereo partly drawn) [Example 86] (Troc-[Chg][Pro(trans-4-Ph)][X2]G[Phg]-OH) | 0.101 to 1
17 | CCCC(NC(=O)[C@@H]1CC2(CN1C(=O)C(NC(=O)OCC(C)C)C1CCCCC1)SCCCS2)C(=O)C(=O)NCC(=O)NC(C(=O)OC(C)(C)C)c1ccccc1 (stereo partly drawn) [Example 87] (Isobutyloxycarbonyl-[ξChg][Pro(4,4-S(CH2)3S)][X2]G[ξPhg]-OtBu) | 0.101 to 1
18 | CCCC(NC(=O)[C@@H]1CC2(CN1C(=O)C(NC(=O)OCC(C)C)C1CCCCC1)SCCCS2)C(=O)C(=O)NCC(=O)NC(C(=O)O)c1ccccc1 (stereo partly drawn) [Example 88] (Isobutyloxycarbonyl-[ξChg][Pro(4,4-S(CH2)3S)][X2]G[ξPhg]-OH) | 0.001 to 0.1
19 | CCCC(NC(=O)[C@@H]1CC2CCCCC2N1C(=O)[C@@H](NC(=O)OCC(C)C)C1CCCCC1)C(=O)C(=O)NCC(=O)NC(C(=O)O)c1ccccc1 (stereo partly drawn) [Example 89] (Isobutyloxycarbonyl-[Chg][Oic(3aξ,7aξ)][X2]G[ξPhg]-OH) | 0.101 to 1
20 | CCCC(NC(=O)[C@@H]1CC2(CN1C(=O)C(NC(=O)OCC(C)C)C1CCCCC1)SCCCS2)C(=O)C(=O)NCC(=O)OC(C)(C)C (stereo partly drawn) [Example 90] | > 1

Row | Compound | Ki [µM]
21 | CCCC(NC(=O)[C@@H]1CC2(CN1C(=O)C(NC(=O)OCC(C)C)C1CCCCC1)SCCCS2)C(=O)C(=O)NCC(=O)O (stereo partly drawn) [Example 91] | > 1
22 | CCCC(NC(=O)[C@@H]1C[C@@H](OCc2ccccc2)CN1C(=O)[C@@H](NC(=O)[C@H](CC(C)C)NS(C)(=O)=O)C1CCCCC1)C(=O)C(=O)NCCCC(C(N)=O)c1ccccc1 (stereo partly drawn) [Example 92] | > 1
23 | CCCC(NC(=O)[C@@H]1C[C@@H](OCc2ccccc2)CN1C(=O)[C@@H](NC(=O)CC(C)CC(=O)O)C1CCCCC1)C(=O)C(=O)NCCCC(C(N)=O)c1ccccc1 (stereo partly drawn) [Example 93] | > 1
24 | CCCC(NC(=O)[C@@H]1C[C@@H](OCc2ccccc2)CN1C(=O)[C@@H](NC(=O)c1ccccc1C(=O)O)C1CCCCC1)C(=O)C(=O)NCCCC(C(N)=O)c1ccccc1 (stereo partly drawn) [Example 94] | > 1
25 | CCCC(NC(=O)[C@@H]1C[C@@H](OCc2ccccc2)CN1C(=O)[C@@H](NC(=O)c1cc(Cl)c(Cl)cc1C(=O)O)C1CCCCC1)C(=O)C(=O)NCCCC(C(N)=O)c1ccccc1 (stereo partly drawn) [Example 95] | > 1
26 | CCCC(NC(=O)[C@@H]1C[C@@H](OCc2ccccc2)CN1C(=O)[C@@H](NC(=O)CC1CCCC1)C1CCCCC1)C(=O)C(=O)NCCCC(C(N)=O)c1ccccc1 (stereo partly drawn) [Example 96] | > 1
27 | CCCC(NC(=O)[C@@H]1C[C@@H](OCc2ccccc2)CN1C(=O)[C@@H](NC(=O)OCC(C)C)C1CCCCC1)C(=O)C(=O)NCCCC(C(N)=O)c1ccccc1 (stereo partly drawn) [Example 97] | > 1
28 | CCCC(NC(=O)[C@@H]1CC2(CN1C(=O)[C@@H](NC(=O)OCC(C)C)C1CCCCC1)OCCO2)C(=O)C(=O)NCC(=O)NC(C(N)=O)c1ccccc1 (stereo partly drawn) [Example 98] (Isobutyloxycarbonyl-[Chg][Pro(4,4-ethylenedioxy)][X2]G[ξPhg]-NH2) | 0.101 to 1
29 | CCCC(NC(=O)[C@@H]1CC2(CN1C(=O)[C@@H](NC(=O)OCC(C)C)[C@@H](C)OCc1ccccc1)SCCCS2)C(=O)C(=O)NCC(=O)N[C@H](C(=O)O)c1ccccc1 (stereo partly drawn) [Example 99] (Isobutyloxycarbonyl-T(Bn)[Pro(4,4-S(CH2)3S)][X2]G[Phg]-OH) | 0.101 to 1
30 | CCCC(NC(=O)[C@@H]1CC2(CN1C(=O)C(NC(=O)OCC(C)C)C1CCCCC1)SCCS2)C(=O)C(=O)NCC(=O)NC(C(=O)N(C)C)c1ccccc1 (stereo partly drawn) [Example 100] (Isobutyloxycarbonyl-[ξChg][Pro(4,4-SCH2CH2S)][X2]G[ξPhg]-NMe2) | 0.001 to 0.1
31 | CCCC(NC(=O)[C@@H]1CC2(CN1C(=O)C(NC(=O)OCC(C)C)C1CCCCC1)SCCS2)C(=O)C(=O)NCC(=O)NC(C(=O)NC)c1ccccc1 (stereo partly drawn) [Example 101] (Isobutyloxycarbonyl-[ξChg][Pro(4,4-SCH2CH2S)][X2]G[ξPhg]-NHMe) | 0.001 to 0.1
32 | CCCC(NC(=O)[C@@H]1CC2(CN1C(=O)C(NC(=O)Nc1ccc(Oc3ccccc3)cc1)C1CCCCC1)SCCCS2)C(=O)C(=O)NCC(=O)NC(C(N)=O)c1ccccc1 (stereo partly drawn) [Example 102] ({X26-CO}-[ξChg][Pro(4,4-S(CH2)3S)][X2]G[ξPhg]-NH2) | > 1
33 | CCCC(NC(=O)[C@@H]1C[C@@H](OCc2ccccc2)CN1C(=O)[C@@H](NC(=O)c1cc(Cl)c(Cl)cc1C(=O)O)C1CCCCC1)C(=O)C(=O)NCCOC(C(N)=O)c1ccccc1 (stereo partly drawn) [Example 103] | > 1
34 | CCCC(NC(=O)[C@@H]1C[C@@H](OCc2ccccc2)CN1C(=O)[C@@H](NC(=O)[C@H](CC(C)C)NS(C)(=O)=O)C1CCCCC1)C(=O)C(=O)NCCOC(C(N)=O)c1ccccc1 (stereo partly drawn) [Example 104] | > 1
35 | CCCC(NC(=O)[C@@H]1C[C@@H](O)CN1C(=O)[C@@H](NC(=O)c1cc(Cl)c(Cl)cc1C(=O)O)C1CCCCC1)C(=O)C(=O)NCCOC(C(N)=O)c1ccccc1 (stereo partly drawn) [Example 105] | > 1
36 | CCCC(NC(=O)[C@@H]1C[C@@H](OC(C)(C)C)CN1C(=O)[C@@H](NC(=O)[C@H](CC(C)C)NS(C)(=O)=O)C1CCCCC1)C(=O)C(=O)NCCOC(C(N)=O)c1ccccc1 (stereo partly drawn) [Example 106] | > 1
37 | CCCC(NC(=O)[C@@H]1CC(=O)CN1C(=O)[C@@H](NC(=O)OCC(C)C)C1CCCCC1)C(=O)C(=O)NCC(=O)NC(C(=O)O)c1ccccc1 (stereo partly drawn) [Example 107] (Isobutyloxycarbonyl-[Chg][Pro(4-oxo)][X2]G[ξPhg]-OH) | 0.101 to 1
38 | CCCC(NC(=O)[C@@H]1CC2(CN1C(=O)[C@@H](NC(=O)c1cc(Cl)c(Cl)cc1C(=O)O)C1CCCCC1)SCCCS2)C(=O)C(=O)NCC(=O)NC(C(N)=O)c1ccccc1 (stereo partly drawn) [Example 108] ({Benzoyl(2-COOH-4,5-Cl2)}-[Chg][Pro(4,4-S(CH2)3S)][X2]G[ξPhg]-NH2) | 0.001 to 0.1
39 | CCCC(NC(=O)[C@@H]1CC2(CN1C(=O)[C@@H](NC(=O)OCC(C)C)C1CCCCC1)SCCCS2)C(=O)C(=O)NCC(=O)NC(C(N)=O)c1ccccc1 (stereo partly drawn) [Example 109] (Isobutyloxycarbonyl-[Chg][Pro(4,4-S(CH2)3S)][X2]G[ξPhg]-NH2) | 0.001 to 0.1
